# Assay results from the BET-seq Pho4 binding data (Le et al. 2018).
# The list shows a part of the results. These are noisy estimates, calculated here from bound and input reads.
# Target: T1, Pho4 (S. cerevisiae) (UniProt P07270)
# T1 sequence: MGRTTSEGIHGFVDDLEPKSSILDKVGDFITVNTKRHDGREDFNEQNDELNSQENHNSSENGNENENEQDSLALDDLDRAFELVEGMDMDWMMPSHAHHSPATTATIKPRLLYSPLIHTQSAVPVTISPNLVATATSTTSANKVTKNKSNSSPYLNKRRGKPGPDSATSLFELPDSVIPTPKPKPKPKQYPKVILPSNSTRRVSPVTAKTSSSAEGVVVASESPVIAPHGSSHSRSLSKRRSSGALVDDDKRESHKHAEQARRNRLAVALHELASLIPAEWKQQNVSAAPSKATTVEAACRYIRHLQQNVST
# Assay: relative binding free energy (BET-seq); higher = weaker binding
# Details: reference: library average
row,Sequence,relative binding free energy [kcal/mol]
1,GCTTTCACGTGGGGCT,0.29
2,GGGGTCACGTGGGGGA,0
3,ATGTTCACGTGCAGTT,-0.04
4,GATGTCACGTGACTTG,0.36
5,GAGAACACGTGTGTGT,0.1
6,ATCTGCACGTGTGGGT,-0.03
7,TAGGGCACGTGGGATT,-0.15
8,TGTGACACGTGTATGG,-0.02
9,AGCGGCACGTGTGGTC,-0.11
10,ATGGTCACGTGATAGG,0.23
11,CCGGTCACGTGAGTGG,0.3
12,TATTGCACGTGGCTCG,0.02
13,ACCGGCACGTGGGTTT,-0.14
14,CATAGCACGTGATTTG,0.17
15,GATATCACGTGGTAGG,0.2
16,CTGTACACGTGTGAGA,0.16
17,AGCATCACGTGGGTTG,0.05
18,TCGGTCACGTGGTTTA,0.2
19,GCGTTCACGTGGCGGT,0.27
20,CGGGCCACGTGGGGGA,-0.17
21,TTCGTCACGTGATCTT,0.18
22,GTTATCACGTGGGAAG,0.01
23,GGTTTCACGTGCTGGT,0.3
24,AGTAACACGTGTTGGT,-0.01
25,AATGTCACGTGGGCGT,-0.15
26,CGTCGCACGTGGGGGA,-0.13

row,Sequence,relative binding free energy [kcal/mol]
1,CGGGTCACGTGCTTTT,0.01
2,GATAGCACGTGCGTTT,-0.03
3,TTATGCACGTGAGTTA,0.03
4,CAATACACGTGTGGGT,-0.01
5,TTATGCACGTGACATT,0.04
6,AGGTTCACGTGTATCT,0.21
7,GGTCACACGTGGGCGG,0.05
8,AAGGTCACGTGTCGTG,0.13
9,CGTTTCACGTGGTTCT,0.17
10,TGGGACACGTGAGGGG,0.33
11,TCGATCACGTGTGGAT,0.15
12,GCGGGCACGTGAAGGC,0.3
13,TGCTCCACGTGGCGGG,-0.08
14,AGTGGCACGTGAGTTG,0.12
15,GGGATCACGTGCAGGT,0.14
16,CATTACACGTGTGAGT,0.26
17,ATGGCCACGTGGGATA,-0.14
18,AGAAGCACGTGGGTGT,-0.13
19,TGCTGCACGTGATAGT,0.1
20,TGGACCACGTGGTTGT,-0.11
21,TAGTGCACGTGGTGGC,-0.08
22,GATCTCACGTGATTGG,0.4
23,TTAGGCACGTGGGTGC,-0.24
24,TGGCCCACGTGAGGGT,0.17
25,GTTTTCACGTGATGCA,0.41
26,GCGTGCACGTGTGATT,0.07

row,Sequence,relative binding free energy [kcal/mol]
1,TTGATCACGTGTTGAT,0.2
2,GAGGGCACGTGGGCAT,-0.23
3,GGACGCACGTGGTGTT,-0.17
4,AGTGACACGTGCTGTT,-0.12
5,TATGGCACGTGCTGTT,-0.18
6,GTAGTCACGTGGGCGA,-0.12
7,GCGTGCACGTGAGTCT,0.31
8,TATTTCACGTGGGCGA,0.03
9,ATTGACACGTGTTTTA,-0.01
10,GGATTCACGTGATATT,0.29
11,GTAGACACGTGGTATA,-0.09
12,GGTGGCACGTGTCGTC,0
13,GTTTGCACGTGAGACT,0.14
14,TGAGCCACGTGCCGGG,-0.07
15,TTGTGCACGTGGGAAG,-0.18
16,ACTGTCACGTGGGTCT,0.01
17,TAGGTCACGTGGATGC,0.11
18,TAGGGCACGTGAGTGA,0.24
19,CAGAGCACGTGAAGGT,0.31
20,CTAAGCACGTGGAGTT,0
21,AATGACACGTGTAGGA,0.02
22,GTTGTCACGTGGCAGT,0.11
23,GGTTACACGTGCGCTG,0.09
24,GTGTCCACGTGAATGG,0.29
25,GGGGACACGTGGGCGC,-0.13
26,TATTTCACGTGCAGTA,0.2

row,Sequence,relative binding free energy [kcal/mol]
1,ATGTCCACGTGTATGT,-0.02
2,GGAGACACGTGTGTCG,-0.01
3,CGTGGCACGTGTCTGT,-0.09
4,GTTAGCACGTGAGATA,0.4
5,GGTGGCACGTGTCTGC,0.03
6,ATTGCCACGTGGGGGT,-0.33
7,GGCCTCACGTGGCGGG,0.15
8,AATTTCACGTGGCTGT,0.12
9,ATGGGCACGTGATCGG,-0.04
10,AGTTACACGTGTGAAA,0.35
11,CTTTTCACGTGTGGGG,0.26
12,TTTGACACGTGGTTCG,0.05
13,AGTGGCACGTGGATCA,0.04
14,TGTGACACGTGGGAGT,-0.04
15,CAGTGCACGTGCGTGT,-0.2
16,GGTGTCACGTGAGGAC,0.31
17,GTAGGCACGTGTAAGG,0.07
18,GGGGTCACGTGAAGGA,0.39
19,GGAAACACGTGTCGGT,0.22
20,ATTTACACGTGGGTCG,-0.17
21,ACGTGCACGTGTAGTA,-0.15
22,GCGTCCACGTGGGTTG,-0.16
23,AAAGACACGTGTGGTG,0.05
24,TTTTACACGTGGGCAT,-0.01
25,TTGAACACGTGTAGTG,0.15
26,ATTAACACGTGGGTTT,0.01

row,Sequence,relative binding free energy [kcal/mol]
1,AAAATCACGTGTTTGG,0.16
2,GGGAGCACGTGGTCAG,-0.27
3,CGTGACACGTGGGTTG,-0.16
4,GAGGACACGTGTGTGG,0.14
5,GGAGTCACGTGTTTGC,0.04
6,AACAGCACGTGTGGGT,-0.04
7,AGGTACACGTGGTTCA,0.04
8,TAAAGCACGTGATTGG,0.09
9,TTTCTCACGTGACTGG,0.23
10,CTCGTCACGTGTTGTG,0.21
11,CGGATCACGTGAGGTT,0.49
12,TGTTGCACGTGTGCTG,0.07
13,GTATGCACGTGTAGTT,0.21
14,GCATTCACGTGATTTG,0.45
15,GTTTACACGTGCATTG,0.3
16,GGAGTCACGTGGGTCG,-0.08
17,AATTGCACGTGGCGGA,0
18,TATTACACGTGGTTCG,0.12
19,TGAAGCACGTGGGGAA,-0.21
20,GTAAACACGTGTGATG,0.11
21,ATGAACACGTGAGGGG,0.33
22,TGACTCACGTGTGTGC,0.22
23,GCGAACACGTGTAGGG,0.03
24,TTTGCCACGTGTGAGT,0.07
25,TTTAGCACGTGGAGCG,0
26,AATTGCACGTGTGATT,0.15

row,Sequence,relative binding free energy [kcal/mol]
1,GTTAGCACGTGTTGTT,0.01
2,CATAGCACGTGTTGTA,-0.1
3,TGTTTCACGTGGACGA,0.25
4,GTCTTCACGTGGTCTG,0.22
5,GGCGTCACGTGGCGGT,-0.09
6,TTCGGCACGTGGTATG,-0.04
7,GGTTTCACGTGGAGCA,0.38
8,AGTTGCACGTGCGATT,0.06
9,CGTTGCACGTGTAATG,0.04
10,TTTAGCACGTGCAAGG,-0.19
11,GCGGTCACGTGTGGAA,0.24
12,GCTGGCACGTGAGTAT,0.16
13,TTGTGCACGTGGGACT,-0.14
14,GTGAACACGTGATGGT,0.22
15,AGTTACACGTGTTATC,0.16
16,GGGATCACGTGTGTTG,0.31
17,TAGATCACGTGTAAGG,0.2
18,TAAGACACGTGGTGAG,-0.08
19,AGTTACACGTGGTGAA,0.06
20,GTGCTCACGTGTGCTG,0.13
21,CTGTTCACGTGGTGTG,0.17
22,TGTAGCACGTGAAGAT,0.29
23,GGACGCACGTGGGTAA,-0.1
24,GATGTCACGTGACGTG,0.14
25,GATGACACGTGTTTGT,0.15
26,TTGCGCACGTGTATAG,0

row,Sequence,relative binding free energy [kcal/mol]
1,CAATGCACGTGGGTGG,-0.13
2,ATAAGCACGTGGTTAT,-0.14
3,GTATACACGTGAGTAG,0.15
4,TTCGGCACGTGGAGGA,-0.26
5,ATGAACACGTGGATTT,0.03
6,TTATCCACGTGGGGTA,-0.19
7,CGGGGCACGTGAATGG,0.06
8,GCGTTCACGTGTGGAG,0.22
9,GGTTCCACGTGGGTTC,0.01
10,GTGGTCACGTGGCACG,-0.05
11,CGGATCACGTGTAGTG,0.11
12,TCGTTCACGTGAAAGG,0.24
13,CGGTTCACGTGGAATT,0.47
14,TGGTTCACGTGTGACG,0.33
15,GATAGCACGTGTGGGG,0.03
16,CGGTGCACGTGTCAGT,-0.12
17,AGTGACACGTGGTGTT,-0.09
18,GATGTCACGTGGGGGA,-0.02
19,TCTTTCACGTGGTCGA,0.3
20,TGTGGCACGTGGATAG,-0.03
21,TGAATCACGTGCGGGG,0
22,ATAGCCACGTGGGGCG,-0.2
23,TGGGGCACGTGTAAAG,-0.04
24,TCTAGCACGTGAGTGT,0.17
25,TAACGCACGTGTAGGT,-0.1
26,GTGTACACGTGAATTG,0.36

row,Sequence,relative binding free energy [kcal/mol]
1,ATAGGCACGTGGTTGG,-0.15
2,TTAGGCACGTGAGAGA,0.08
3,GTAGGCACGTGTGAGT,0.04
4,TGCAGCACGTGGTGCG,-0.24
5,CTCGGCACGTGTTTTG,-0.13
6,GGTGCCACGTGTGCGT,-0.16
7,TAAGACACGTGGATTT,0.26
8,TTTAACACGTGATGAG,0.26
9,GATGTCACGTGGGGCT,0.11
10,TGGAGCACGTGCGTGA,-0.1
11,GGGTACACGTGAGATA,0.23
12,TTTTTCACGTGTCTGG,0.35
13,GGTGGCACGTGGTGTC,-0.06
14,ATCTTCACGTGATTAG,0.45
15,GTTGCCACGTGTGTTG,-0.06
16,GAGGTCACGTGCGCGG,0
17,AGTAGCACGTGGGATA,-0.24
18,GAAAACACGTGGAGGG,0.1
19,GATGGCACGTGGATAT,0.03
20,ATAGTCACGTGTGGAT,0.08
21,GGGTACACGTGAAGGA,0.45
22,TGGTGCACGTGGGCCT,-0.1
23,GGTGTCACGTGCTTTG,0.1
24,GTGATCACGTGAGTTA,0.25
25,GTGATCACGTGGTCTG,0.06
26,TCTTCCACGTGTTTTT,0.09

row,Sequence,relative binding free energy [kcal/mol]
1,ACGGTCACGTGGTATA,-0.04
2,GTTCGCACGTGGTTTT,-0.03
3,TACTTCACGTGTGAAG,0.34
4,AAGATCACGTGGTATG,-0.03
5,GATCGCACGTGTGTGG,0.12
6,ATGCGCACGTGTCGGT,-0.21
7,TTTTGCACGTGTACTT,0.09
8,TAAATCACGTGGCGTG,0
9,TTGTGCACGTGTAGGT,0.02
10,TATCACACGTGTGGGG,0.12
11,TTCTACACGTGTGATG,0.32
12,CCTTTCACGTGTGAGG,0.33
13,TTTTCCACGTGGAGAT,0.12
14,GTTGGCACGTGAGTTA,0.13
15,TGATGCACGTGTTTAC,0.03
16,GGGTTCACGTGACGCG,0.2
17,TTGAGCACGTGAATTA,0.34
18,GAAGGCACGTGGCGTT,-0.17
19,AGGCTCACGTGAGATG,0.34
20,CCAGGCACGTGGGGTT,-0.36
21,TAAAACACGTGGAGGT,0.05
22,GACTTCACGTGGGTTT,0.24
